Measurements as given in article PMC11570452, “MOTS-c modulates skeletal muscle function by directly binding and activating CK2” (iScience, 2024).
No constants are given. Whether binding was seen depends on the method and setting. Some entries that bind do so weakly or less than the wild type.

The chains behind the UniProt entries cited, without tags or fusion partners. Where a name states a change or a piece, a line headed by the entry shows the natural chain unless it says otherwise.
UniProt P67870: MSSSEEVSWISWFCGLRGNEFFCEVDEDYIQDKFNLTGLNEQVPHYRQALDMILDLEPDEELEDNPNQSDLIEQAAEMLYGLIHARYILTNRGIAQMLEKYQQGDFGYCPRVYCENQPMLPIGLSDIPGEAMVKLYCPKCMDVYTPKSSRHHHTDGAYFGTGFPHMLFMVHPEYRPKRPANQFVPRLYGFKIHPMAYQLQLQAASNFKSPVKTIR
UniProt P68400: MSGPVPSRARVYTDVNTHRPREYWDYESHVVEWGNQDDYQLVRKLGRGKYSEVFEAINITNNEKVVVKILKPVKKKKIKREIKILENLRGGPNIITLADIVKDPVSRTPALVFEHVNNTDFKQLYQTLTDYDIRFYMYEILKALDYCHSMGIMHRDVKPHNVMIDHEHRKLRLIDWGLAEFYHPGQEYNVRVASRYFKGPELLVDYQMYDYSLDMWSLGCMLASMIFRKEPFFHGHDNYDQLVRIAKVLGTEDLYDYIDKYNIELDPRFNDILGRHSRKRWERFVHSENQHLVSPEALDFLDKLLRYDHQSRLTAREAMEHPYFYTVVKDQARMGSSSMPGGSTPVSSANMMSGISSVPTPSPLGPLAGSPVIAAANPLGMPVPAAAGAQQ

Columns and labels:
[1] = target: T1, MOTS-c (mitochondrial open reading frame of the 12S ribosomal RNA type-c), wild type (human); assay: SPR; Biacore T200; MOTS-c or K14Q MOTS-c (10 μg/mL, 10 mM sodium acetate pH 5.0) immobilised on CM5 chip (278 RU and 193 RU); first 70 nM CK2α or CK2β, then CK2α at 2.5, 5.0, 10 and 20 nM flowed at 30 μL/min in 0.01 M HEPES, 0.15 M NaCl, 0.3 mM EDTA, 0.05% tween; both purified
T1 sequence (peptide): MRWQEMGYIFYPRKLR

[2] = target: T1, MOTS-c (mitochondrial open reading frame of the 12S ribosomal RNA type-c), wild type (human); assay: far-Western, overlay or dot blot; MOTS-c (0-21.7 μg) dotted on nitrocellulose; CK2 complex 5 μg/mL in SuperBlock (PBS) flowed over, 30 min, room temperature; detected by CK2α and CK2β antibodies; both purified

| Substance | binding [1] | binding [2] |
| --- | --- | --- |
| CK2β (recombinant, IBL) (from UniProt P67870 1-215) | no binding (tested: 70 nM) |  |
| CK2 complex (Casein Kinase II; contains both CK2α and CK2β subunits) (from UniProt P68400 1-391; P67870 1-215) |  | binds |
